Test results taken from the supplement of paper PMC3334620.
The full ranking holds about 33,000 sequences; the median of “E-score (-0.5 to 0.5)” is about -0.054, and the highest 2% start at about 0.39. The list shows a part of the results.

What follows are sequences tested against Ylr278c (UniProt Q05854) (assay: PBM E-score (8-mer binding enrichment) (E-score (-0.5 to 0.5)); higher = stronger / more preferred TF binding; most listed sequences are background and not binding sites). Details: protein concentration: 200 nM; construct: GST-DNA-binding domain.
In short: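 E-scores (a modified Wilcoxon-Mann-Whitney statistic) were assigned by the Universal PBM Analysis Suite to every ungapped eight-base word pooled with its reverse complement. The input came from universal all-10-mer Agilent arrays made double-stranded by primer extension and probed with GST-tagged yeast transcription factors at about 100-200 nM. Fluorescent anti-GST detected bound protein, and masliner normalised the scans.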

Sequence | PBM E-score
ATCTGGGC | -0.00438
AGACGTTC | -0.0517
ATGCGCCA | -0.12
ACCTAAAG | -0.176
CCAAACCG | 0.235
GTCAAGAC | -0.133
CTTATCGC | 0.0669
TGGCACCA | -0.213
GACCGCAC | 0.0959
ACGGTTCC | 0.0133
GCAGTCCA | -0.136
ATTGTGGG | -0.101
AGCGCGAT | 0.0131
ACAAAATA | -0.0451
CGTGTAGC | -0.203
CCGAACAG | 0.276
ACTCTAAC | -0.068
GATGAATC | -0.186
AGCCGCCC | 0.129
CTATACTC | -0.0175
CTCGCGGC | 0.198
AATTCTTG | -0.224
AGTCGCAC | -0.0873
AGTGAGTG | -0.0486
CGATTCCC | 0.226

Sequence | PBM E-score
AACGACGC | -0.164
ATCCCTTC | -0.122
ACTCTCCA | -0.0794
CGCCCAAA | 0.0214
CAACCCGC | 0.149
GCCAGTGA | -0.213
CGCTGAAC | -0.00595
CCATAAAA | 0.0557
ACAATATG | -0.00452
ACATCACC | 0.0505
AACGCCTG | -0.211
CACTTACG | 0.0434
CTTGAACC | -0.162
AATATATT | 0.0981
TCACAGAA | -0.138
GACAGCCA | -0.137
CTTTGTGA | -0.13
CCTTCTCA | -0.121
AGCTTTGA | 0.0208
CGGAAGTC | 0.396
ACCCGGCC | 0.272
AAAGAGTA | -0.175
CCTGAAAG | -0.244
AGGCAACG | -0.0653
GATTGGTA | 0.0895

Sequence | PBM E-score
GACCCCTC | -0.0706
GACCACAC | -0.123
GCGCGCGC | 0.214
GGCCCTAC | -0.0104
CAGGGTAC | -0.344
CAGCCGGC | 0.296
AACCCGAT | 0.29
AGAAGGCT | -0.269
GGGAGTGA | 0.0441
CCTGACCC | -0.0167
CAGCGCTA | 0.00241
TACGGTAA | 0.031
CTAACCAA | -0.0463
CCTCGAAG | -0.0957
ATAAAGTC | 0.108
AGGTTATA | -0.194
CCGTAGTA | 0.0927
GGCTTCAA | -0.128
ATACTGAT | -0.069
GCTGAACA | -0.153
CCGAACAC | 0.186
GTAGTCAA | -0.113
AAGTGTTC | 0.0566
CGGGAACC | 0.203
AAGTATGA | -0.00555

Sequence | PBM E-score
TCGTAAGA | -0.0593
GTGTAACA | -0.175
ATTGCTAC | -0.13
AAGAGAAT | -0.0016
AGTTAAAA | 0.0392
GCCCCTAC | -0.00801
GGATAGCC | 0.203
ACAAGGTA | -0.078
AATAGCGC | 0.0368
CTCTGAGC | -0.238
AAAGGACC | 0.0283
GGTCCACA | -0.165
AACACTCG | 0.0471
CTGGCCCC | 0.102
CTACTGGC | -0.0956
CTCCAGCA | -0.256
ATGACCAA | -0.136
GTCATGAA | -0.0846
AATGTGAT | -0.068
CTCGTCCA | -0.127
AAGATCGA | -0.0816
AGGGTGTA | -0.172
AGGCTACT | -0.169
AGCGCACC | 0.142
GTCGACCA | -0.0958

Sequence | PBM E-score
GATTCACC | 0.132
ACGGTCGC | -0.105
AAATGAGG | -0.0578
ATGTCGAC | -0.108
GCCTCGCC | -0.113
GTATATAC | -0.131
AAACTCCG | 0.496
ACCTTTAA | -0.182
TCGACGCA | -0.0404
CATTAAGC | -0.187
CTGTCATC | -0.117
GCGGGCTA | 0.167
GATTACTA | 0.105
AAACCCCG | 0.449
ACGAGCAT | -0.291
CCGTACTA | 0.216
CACTAGCG | -0.147
CCAGGGTA | -0.143
CTTTGGAC | -0.00702
CAAGCCTA | -0.232
ATTCTCGG | 0.277
CAAGGTCC | 0.11
AGCTTTCG | -0.0397
GCACAAGA | 0.0388
TCCCGAGA | 0.305

Sequence | PBM E-score
GTCACCAC | 0.0336
ACCAACGA | -0.0973
ACGTTACG | -0.291
TATCCCAA | -0.058
ACGACACG | 0.0687
GTAACCCA | -0.146
AGACTTAG | -0.162
ACTAAGAA | 0.014
AGGAACAA | -0.0842
TACATTGA | -0.145
TATGAGGA | -0.191
AGTTCGGC | 0.185
CCCACTCA | -0.26
CCTAGTTA | 0.0482
CATCGTAG | -0.277
ACGCTTAC | -0.126
ACGAGTCC | 0.0886
GGCCATAC | 0.0576
GGACCAAA | 0.187
CATATCAC | -0.0993
ATTGTAGC | -0.032
AGGTATCA | -0.218
ATCTATCC | 0.179
CTGAGGAA | -0.133
CTGCTATC | -0.0214

Sequence | PBM E-score
GGTCTTGA | 0.0695
AGGGTTAA | -0.316
AATTCGGG | 0.215
AAAGCCAG | -0.222
AAAACGCA | 0.00568
ACATTTGC | 0.00986
ACAGAATG | -0.164
ACAACCCG | 0.0591
GGCCGCTA | 0.141
ATAGTATC | 0.0193
AATGGACC | 0.0413
AGCAAGTA | -0.21
ACCTGATG | -0.177
CATGACAA | -0.12
GAGAATAC | 0.153
CCGCATGA | -0.0148
CCCCGTCC | 0.252
AAGCCGCG | 0.266
CAGCCAGG | -0.302
ACGCCATA | -0.254
CCTCTAGC | -0.175
ATACCCAT | -0.118
